Inconclusive results and toxic doses are left out. Some entries of the source have several records that differ or are many. Only these are listed. The source may hold further records. The records of an entry do not match, cause unknown; they may come from other doses, times, organisms or constructs than stated.

The assay deals with P388 leukemia ip, CD2F1 mice, survival T/C. Nature of the assay: NCI In Vivo Anticancer Drug Screen. Data for tumor model P388 Leukemia (intraperitoneal) in CD2F1 (CDF1) mice. As to conditions: endpoint: median survival time, higher = longer survival.

Consider `CN1CCN(c2ccc3nc(-c4ccc5nc(-c6ccc(O)cc6)[nH]c5c4)[nH]c3c2)CC1`, for which, for the setting “dose: 175.0 mg/kg/injection, schedule: Q01DX009 (ip), vehicle: saline”, the T/C was 101 % of control and 171 % of control.
On to `CCOC(=O)NOP(=O)(N1CC1)N1CC1`, for which the T/C (dose: 50.0 mg/kg/injection, schedule: Q01DX001 (ip), vehicle: saline + alcohol) is 109 % of control and 185 % of control.
With `O=C1c2ccccc2C(=O)c2c(NCCNCCO)ccc(O)c21`, the T/C reads like this: (dose: 6.25 mg/kg/injection, schedule: Q04DX002 (ip), vehicle: water) 110 % of control, 116 % of control, 164 % of control; (dose: 12.5 mg/kg/injection, schedule: Q04DX002 (ip), vehicle: water) 112 % of control and 179 % of control.
Turning to `Nc1nc(N)nc(Nc2ccc(-c3cc4ccc(-c5ncc[nH]5)cc4[nH]3)cc2)n1`, for the setting “dose: 60.0 mg/kg/injection, schedule: Q01DX005 (ip), vehicle: Klucel (hydroxypropylcellulose) (HPC)”, the T/C is 122 % of control and 161 % of control.
Turning to `COc1cccc2c1C(=O)c1c(O)c3c(c(O)c1C2=O)C[C@@](O)(/C(C)=N/NC(=O)c1cccc([N+](=O)[O-])c1)C[C@@H]3OC1CC(N)C(O)C(C)O1` (stereo partly specified), the T/C (dose: 12.5 mg/kg/injection, schedule: Q04DX003 (ip), vehicle: water) is 114 % of control and 168 % of control.

The values above are taken from PubChem BioAssay AID330 (DTP/NCI, 2004).
